Test results from the antibiotic and cytotoxicity screens of Wong et al. (2023).
The list shows a part of the results.

What follows are molecules tested on S. aureus RN4220 (assay: growth inhibition call (relative growth <= 0.2)). Conditions: 50 µM.

Row | SMILES | growth inhibition call
1 | COc1ccc(S(=O)(=O)Nc2ccc3c(c2)C(=O)N([C@@H](C)CO)C[C@@H](C)[C@@H](CN(C)CC2CCCCC2)OCCCC[C@H](C)O3)cc1 | inactive
2 | NC(=O)NC(=O)C[C@H]1Nc2ccccc2NC1=O | inactive
3 | COc1cccc(NC(=O)N(C)C[C@H]2Oc3cc(C#CC4(O)CCCC4)ccc3S(=O)(=O)N([C@@H](C)CO)C[C@@H]2C)c1 | inactive
4 | C[C@@H]1CN([C@H](C)CO)C(=O)c2cc(NS(=O)(=O)c3cn(C)cn3)ccc2O[C@@H]1CN(C)C(=O)NC1CCCCC1 | inactive
5 | C[C@H](CO)N1C[C@H](C)[C@H](CN(C)S(=O)(=O)c2ccccc2)OCCCC[C@H](C)Oc2ccc(NS(C)(=O)=O)cc2C1=O | inactive
6 | O=C(O)CCC(=O)O | inactive
7 | COc1ccccc1S(=O)(=O)N(C)C[C@H]1Oc2ncc(Br)cc2C(=O)N([C@@H](C)CO)C[C@H]1C | inactive
8 | O=c1[nH]cc(F)c(=O)[nH]1 | inactive
9 | Cc1ccc(S(=O)(=O)N(C)C[C@@H]2Oc3ccc(NC(=O)CCCN(C)C)cc3CC(=O)N([C@@H](C)CO)C[C@H]2C)cc1 | inactive
10 | C[C@H](CO)N1C[C@H](C)[C@H](CN(C)S(C)(=O)=O)Oc2cc(C#CCN(C)C)ccc2S1(=O)=O | inactive
11 | COc1ccc([Si](C)(C)[C@@H]2[C@@H](CCO)O[C@]3(C(=O)N(Cc4cccc(N5C(=O)COc6ccccc65)c4)c4ccccc43)[C@H]2C)cc1 | inactive
12 | COc1ccc(CN(C)C[C@@H]2OCCCC[C@@H](C)Oc3ccc(NC(=O)Nc4c(C)noc4C)cc3C(=O)N([C@@H](C)CO)C[C@@H]2C)cc1 | inactive
13 | CC(C)C[C@@H](C(=O)N[C@@H](Cc1ccc(OCc2ccccc2)cc1)C(=O)NC(C)(C)C)N(C)Cc1ccc(C(C)(C)C)cc1 | inactive
14 | CN(C)CC#Cc1cncc(C(=O)NN)c1 | inactive
15 | C[C@H]1CN([C@@H](C)CO)C(=O)CCCn2cc(nn2)CO[C@H]1CN(C)S(=O)(=O)c1ccc(C#N)cc1 | inactive
16 | C[C@H](CO)N1C[C@H](C)[C@@H](CN(C)Cc2ccc(C(F)(F)F)cc2)Oc2ccc(NC(=O)CCCCCC(=O)Nc3ccccc3N)cc2CC1=O | inactive
17 | C[C@H](CO)N1C[C@H](C)[C@H](CN(C)CC2CCCCC2)Oc2ccc(NC(=O)Cn3cnnn3)cc2CC1=O | inactive

Row | SMILES | growth inhibition call
18 | Cc1noc(C)c1S(=O)(=O)Nc1ccc2c(c1)C(=O)N([C@H](C)CO)C[C@H](C)[C@@H](CN(C)C(=O)Nc1cccc3ccccc13)OCCCC[C@H](C)O2 | inactive
19 | CSc1c(-c2ccc(Cl)cc2)[nH]c2ccccc12 | active
20 | CN(C)CCN1CCc2ncc(Cn3cncn3)n2CC1 | inactive
21 | C[C@@H]1CCCCO[C@@H](CN(C)C(=O)Cc2ccccc2)[C@@H](C)CN([C@@H](C)CO)C(=O)c2cc(NS(=O)(=O)c3ccc(F)cc3)ccc2O1 | inactive
22 | CC(C)NC(=O)Nc1cccc2c1O[C@H](CN(C)Cc1ccc(Oc3ccccc3)cc1)[C@H](C)CN([C@H](C)CO)C2=O | inactive
23 | CCOC(=O)C(CCc1ccccc1)NC(C)C(=O)N1C(C(=O)O)CC2CCCCC21 (stereo not drawn) | inactive
24 | CO[C@@H]1CN(C)C(=O)c2ccc(NC(=O)C3CC3)cc2OC[C@@H](C)N(C(=O)CN2CCOCC2)C[C@H]1C | inactive
25 | CCOC(=O)[C@@H](N)Cc1ccc(O)c(O)c1 | inactive
26 | C[C@H]1CN([C@@H](C)CO)C(=O)c2cc(NC(=O)Nc3ccccc3)ccc2O[C@@H]1CN(C)S(C)(=O)=O | inactive
27 | C[C@@H]1CCCCO[C@@H](CN(C)CC2CC2)[C@H](C)CN([C@@H](C)CO)C(=O)c2cc(NC(=O)Nc3ccc(F)cc3)ccc2O1 | inactive
28 | C[C@@H]1CN([C@@H](C)CO)C(=O)c2cc(NC(=O)CCC(F)(F)F)ccc2O[C@@H](C)CCCCO[C@H]1CN(C)Cc1ccncc1 | inactive
29 | COC(=O)c1ccc([C@H]2C=C(C(=O)N3CCOCCOCCOCCOCC3)O[C@@H](OCCCCO)C2)cc1 | inactive
30 | Cc1ccc(S(=O)(=O)Nc2cccc3c2O[C@H](CN(C)CC2CC2)[C@H](C)CN([C@@H](C)CO)C3=O)cc1 | inactive
31 | C[C@H]1CN([C@@H](C)CO)C(=O)c2cccc(NS(C)(=O)=O)c2O[C@H]1CN(C)C(=O)Nc1ccc(C(F)(F)F)cc1 | inactive
32 | COc1ccc2[nH]c3c(-c4cccc5ccccc45)nccc3c2c1 | inactive
33 | CCS(=O)(=O)Nc1ccc2c(c1)C(=O)N(C)[C@@H]1CC[C@H](CC(=O)NCc3ccccc3F)O[C@@H]1CO2 | inactive
